Reference: patent US20200002401A1, “CD44 BINDING PEPTIDES” (EXCHANGE IMAGING TECHNOLOGIES GMBH, priority 2013, published 2020)
Where no end group is shown, it is not given here.

Experiments:
[1] = system: mucinous adenocarcinoma tissue (sample No. 35); assay: Labelling of tumor tissue sections with bispecific nanoparticle, with and without free targets; set-up: species or system human; conditions: MBP-CEA 25 μM or Sialyl Lewisa 250 μM; FIG. 12
Method: In a separate set of experiments, a sample taken from a human tumor was used. The tumor sample No. 35 was resected in 2011 from coecum and was diagnosed as a mucinous adenocarcinoma. It was classified according the TNM classification as pT4No(0/18)G3Ro. This sample which was not otherwise pretreated was prepared and fixed as follows.
The resected tumor sample, stored at −70° C. was used to prepare cryosections with a thickness of 5 μm using a HM560 MV cryostate. (Thermo Scientific, Walldorf, Germany). The sections were dried for 60 to 120 min at room temperature and incubated with cold acetone (−20° C.) for 10 minutes. After a further drying step for 10 min at room temperature, the sections were stored over night at −70° C.
The sections were defrosted in a closed box for 30 min at room temperature. Fixation was performed by incubation in a solution containing 20 mg/ml dimethyl suberimidate (DMS) and in 20 mM CaCl2 in 250 mM Tris-HCl buffer pH 8.0. […]
The sections as prepared above were evaluated with a reverse microscope Axiovert 200 with Axiocam HrM and a Axiocam Hrc CCD camera system, HXP 120 C illuminating device. The pictures were analysed using the Axiovision software (version 4.8; Carl Zeiss, Oberkochen, Germany). […]

[2] = system: human colon carcinoma cell line HCT-116; assay: Immunocytochemical analysis of CD44v5-expressing tumor cells with peptide-coupled quantum dots; assay type: cell-based
Description: In order to underscore the diagnostic and therapeutic potency of the CD44ex9-binding proteins, the peptides A, B and C were expressed as MBP-fusion proteins containing a His-tag, coupled to quantum dots and used for immunocytochemical analysis of CD44-expressing tumour cells.
The peptides were expressed as MBP-(YTH_v5_A/B/C)-His6 fusion proteins in E. coli, purified using Ni-NTA affinity chromatography and coupled via the His6-Tag to the QDBP-655 quantum dots.
The expressed and affinity-purified peptides A, B or C are dialysed for 2 hours against 50 mM sodium borate pH=8.3 (Slide-A-Lyzer Mini Dialysis Unit 10 KDa; (Thermo Fisher, Rockford, Ill., USA). Afterwards the protein concentration is determined and the solution diluted to the required concentration. The QDBP-655 quantum dot and the protein are mixed together to an end concentration of 0.3 μM (QDBP-655) in QDBP-655/ligand ratios of 1:12.5, 1:25, 1:50, 1:75 and 1:100 in sterile borosilicate vials as summarized in the following table: […]

[3] = molecular target: T1, CD44v5 peptide (Homo sapiens, UniProt P16070); assay: FDG assay of the deletion mutants of peptide B (FIG. 19); assay type: binding; conditions: compared with peptide B
T1 construct: expressed in transfected cells; host or cells: yeast (two-hybrid reporter strain)
T1 sequence (P16070 346-384): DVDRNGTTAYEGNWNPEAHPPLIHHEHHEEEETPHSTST
Description: The FDG assay is based on the reporter system of the two hybrid scanning system. Hereby the GAL4-binding domain with the CD44v5 peptide interacts with the respective peptides fused to the GAL4-actvation domain. After complex formation two independent reporter genes are activated, the first one encodes a fluorescent protein, the second reporter gene encodes the enzyme beta-galactosidase, whose enzymatic activity can be determined by using the fluorogenic substrate Fluorescein di-beta-D-galactopyranoside (FDG).
The peptides were comparatively tested in the PHP and the FDG assay.

Substance: Sialyl-Lewisa
- effect of free target on labeling by the bispecific nanoparticle [1]: inhibits the interaction with the cellular CA19-9 antigen

Substance: nanoparticles coupled to peptide A: peptide A expressed as MBP fusion protein with His6-tag, coupled to QDBP-655 quantum dots (PGVPGVQLTANTQSLVLMSAFDIAIEVTFISSHHHHHH; also: expressed as MBP fusion protein, coupled to QDBP-655 quantum dots)
- colocalization with labeling by anti-CD44v5 antibody (positive control) ([2]; HCT-116, VFF-7): colocalizes with the labeling as generated by the anti-CD44v5 antibody
- labelling of HCT-116 tumour cells ([2]; Qdot-peptide conjugates 100 nM, FIG. 22): labelling of the tumour cells could be observed

Substance: PGQLSFEVQWETSETLKILVKPLVFVCREVYDPPC (PGQLSFEVQWETSETLKILVKPLVFVCREVYDPPC; listed as Homo sapiens) [Peptide B1, peptide B with N-terminal deletion of 18 amino acids]
- ability to bind to CD44v5 (deletion mutants of peptide B) [3]: slightly decreased activity
